Test results from PubChem BioAssay AID1671188 (National Center for Advancing Translational Sciences (NCATS), 2021).
Among all 100,000 compounds or so, about 250 (0.25%) were called active. The inconclusive results got no clear call from the source; some entries with a clear call stand among them for comparison. The call rests on the fitted dose curve; in most records, active means well fitted inhibition curve with a large enough effect; inconclusive means small, poorly fitted or top-dose-only effect; inactive means flat fitted curve, though single readings scatter. Potencies of inconclusive entries are left out as doubtful fits.

These compounds were tested against Alanine aminotransferase 2 (Homo sapiens) (UniProt Q8TD30) (assay: Primary qHTS assay for inhibitors of Glutamate pyruvate transaminase 2 (GPT2)). Conditions: Recombinant GPT2, coupled pyruvate oxidase/HRP Amplex Red fluorescence; activity change, negative = inhibition: at 57.7 µM (top of the series) unless noted; series mostly up to 57.7 µM.
UniProt Q8TD30, sequence (Q8TD30 whole entry, looked up): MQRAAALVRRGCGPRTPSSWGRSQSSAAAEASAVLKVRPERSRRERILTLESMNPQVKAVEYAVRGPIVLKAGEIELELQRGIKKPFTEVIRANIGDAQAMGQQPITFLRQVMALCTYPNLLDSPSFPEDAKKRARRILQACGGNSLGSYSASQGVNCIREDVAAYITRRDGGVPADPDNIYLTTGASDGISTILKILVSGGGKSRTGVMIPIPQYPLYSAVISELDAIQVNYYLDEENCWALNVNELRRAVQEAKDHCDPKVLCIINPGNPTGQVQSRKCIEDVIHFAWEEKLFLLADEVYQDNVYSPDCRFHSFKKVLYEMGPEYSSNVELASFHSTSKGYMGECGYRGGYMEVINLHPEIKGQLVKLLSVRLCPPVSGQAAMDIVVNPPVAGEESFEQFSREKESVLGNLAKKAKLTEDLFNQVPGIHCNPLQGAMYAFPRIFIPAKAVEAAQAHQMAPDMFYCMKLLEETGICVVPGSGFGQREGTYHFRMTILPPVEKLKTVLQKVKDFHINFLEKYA
In short: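 Inhibition is scored from Amplex Red fluorescence generated when pyruvate oxidase and HRP act on pyruvate released by GPT2. Reactions contain 10ng/uL enzyme, 250uM a-KG and 2mM L-alanine and run 30 min at room temperature.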
Further: nearly all actives have a fitted effect of over 60% in size.
On the % scale 0 is the no-effect control and ±100 the full control effect; potency means the concentration at half of the fitted maximal effect; tags describe the fitted curve by direction and shape.

Row | Compound | Potency | activity change, negative = inhibition
1 | O=[S+]1([O-])NCC2(CCN(Cc3ccsc3)C2)Nc2ccccc21 (centres undefined) | inactive | –
2 | O=C(c1ccc(Cl)cc1)N1CCN(Cc2ccccc2-c2cccnc2)CC1 | inconclusive [inhibitor, single point] | –
3 | CN(C)c1cccc(C(=O)N2CCN(c3cc(-c4ccc(Cl)cc4)[nH]n3)CC2)c1 | inactive | –
4 | COCC1CN(Cc2cccc(OC(F)(F)F)c2)CC12CCNCC2 (centres undefined) | inconclusive [inhibitor, partial curve, poor fit] | –
5 | CC1=C[C@@H](CNC(C)C)[C@H](C(C)C)C[C@H]1Cc1nnc(-c2ccc(C)cc2)o1 | inconclusive [inhibitor, single point] | –
6 | CNC(=O)[C@@H](C1CCCCC1)N1CCC[C@H]1C(=O)N1CCC1 | inconclusive [inhibitor, single point] | –
7 | COc1ccccc1OCCNC(=O)C1CCN(c2cn[nH]c(=O)c2)C1 (centres undefined) | inactive | –
8 | COc1ccc2nc(C[C@@H]3C[C@@H](C(C)C)[C@H](CNC(=O)CCCC(=O)O)C=C3C)[nH]c2c1 | inactive | –
9 | CC(C)[C@@](C)(O)[C@@H]1CN(c2nc(-c3[nH]nc4ncccc34)c(F)cc2Cl)CCN1 | inactive | –
10 | COc1ccc(-c2c(-c3ccc(O)cc3O)n[nH]c2C)cc1 | inconclusive [inhibitor, full curve, poor fit] | –
11 | Cc1ccc(CNC(=O)N2CCCCCNC(=O)CC2c2ccccc2)cc1 (centres undefined) | inconclusive [inhibitor, single point] | –
12 | COCc1nn(CC(=O)NC(C)Cc2cc(C)[nH]n2)c(=O)n1-c1ccccc1 (centres undefined) | inconclusive [inhibitor, partial curve, poor fit] | –
13 | COc1ccc(CNC(=O)N2CC(n3cc(C(=O)NCC4CC4)nn3)C2)cc1 | inactive | –
14 | O=C(C1CCCN1C(=O)Nc1ccccc1)N1CCCC(c2nc3ncccc3[nH]2)C1 (centres undefined) | inconclusive [inhibitor, single point] | –
15 | O=C(Cc1c[nH]c2ncc(-c3ccccc3Oc3ccccc3)cc12)N1CCOCC1 | inconclusive [inhibitor, single point] | –
16 | COc1ccc(CN2CCn3c(nn(-c4ccc(OC)cc4)c3=O)C2)cc1 | inactive | –
17 | C=C1CC[C@H]2[C@@](C)(CCC[C@@]2(C)C(=O)O)[C@@H]1CCC(C)CCO (some centres undefined) | inactive | –
18 | CCOc1ccccc1C(=O)N1CCC2(CC1)NC(=O)N(c1cccc(Cl)c1)N2 | inconclusive [inhibitor, single point] | –
19 | CCOc1ccc(Nc2nc(-c3c(C)nc4ccccn34)cs2)cc1 | inconclusive [inhibitor, single point] | –
20 | COC(=O)[C@@H]1Cc2c([nH]c3ccccc23)[C@H]2C[C@@H](N3CCOCC3)C[C@@H](c3ccc(C(F)(F)F)cc3)N21 | inconclusive [inhibitor, full curve, poor fit] | –
21 | COc1ncccc1CN1CCC2(CC1)COCCN2C(=O)OCc1ccccc1 | inconclusive [inhibitor, single point] | –
22 | COc1ccccc1-c1[nH]nc2ncc(-c3c(C)noc3C)nc12 | inconclusive [inhibitor, single point] | –
23 | O=C(NCCCc1ccccc1)C1CCN(C(=O)c2ncn3c2COC(c2ccccc2)C3)CC1 (centres undefined) | inconclusive [inhibitor, full curve, poor fit] | –

Row | Compound | Potency | activity change, negative = inhibition
24 | O=C(NCc1c[nH]c2ncccc12)c1ccncc1 | inconclusive [inhibitor, single point] | –
25 | CC(C)S(=O)(=O)N1CCC(Nc2cccnc2)C1 (centres undefined) | inconclusive [inhibitor, single point] | –
26 | COc1ccc(N2CC(C(=O)N3CCC(C(=O)NCCCc4ccccc4)C3)NC2=O)cc1 (centres undefined) | inconclusive [inhibitor, single point] | –
27 | O=C(C1CCCC1)N1CC2(CCN(Cc3cccnc3)C2)Cc2ccccc21 (centres undefined) | inconclusive [inhibitor, full curve, poor fit] | –
28 | CN(C)c1ncc2c(n1)C(C)(C(=O)NCc1cccc(Cl)c1)CCC2 (centres undefined) | inactive | –
29 | Cc1cc2c(N3CCCC3)nc(N3CCCC3)nc2n1C | inconclusive [inhibitor, full curve, poor fit] | –
30 | CC1=C[C@@H](CNCc2ccc(C#N)cc2)[C@H](C(C)C)C[C@H]1Cc1nnc(C(C)(C)C)o1 | inconclusive [inhibitor, single point] | –
31 | CN(C)c1ncc2c(n1)C(C)(C(=O)NCC1CC1)CCC2 (centres undefined) | inactive | –
32 | COc1ccc(CNCc2ccc(C)s2)cc1OCC(O)CN1CCCCC1 (centres undefined) | inactive | –
33 | O=[S+]([O-])(c1ccccc1)N1CCn2c(nnc2-c2ccccc2)C1 | inconclusive [inhibitor, single point] | –
34 | O=C(CCc1nc2ccccc2[nH]1)N1CCCC(Cc2noc(-c3ccccc3)n2)C1 (centres undefined) | inconclusive [inhibitor, single point] | –
35 | Cn1cccc1C(=O)N[C@H]1C[C@@H](C(=O)O)N(C(=O)CSCC(=O)N2C[C@@H](NC(=O)c3cccs3)C[C@H]2C(=O)O)C1 | inactive | –
36 | CN(CC1CCOCC1)C(=O)CCCc1ccccc1 | inactive | –
37 | CC(C)(O)CCc1cccc(C(=O)N(Cc2ccc3c(c2)OCO3)C2CC2)c1 | – | inactive: 0.269% [at 11.5 µM]
38 | CCOCc1nc(C2CCCN2S(=O)(=O)c2c(C)nn(C)c2C)no1 (centres undefined) | inactive | –
39 | Cc1cc(S(=O)(=O)N2C[C@@H](F)C[C@H]2C(=O)N2CCc3ccccc3C2)ccc1F | inconclusive [inhibitor, partial curve, poor fit] | –
40 | COCc1nc(C2CCCN(C(=O)NC3CCCC3)C2)no1 (centres undefined) | inactive | –
41 | CO[C@H]1CN(C2CCN(S(=O)(=O)N(C)C)CC2)[C@H]1c1ccncc1 | inactive | –
42 | CCOc1ccccc1C(=O)N1C[C@@H](CN2CCCN(C)CC2)[C@@H](CO)C1 | inconclusive [inhibitor, full curve, poor fit] | –
43 | COc1cc(C(=O)NC2CCN(c3cc(-c4ccc(Cl)cc4)[nH]n3)C2)cc(OC)c1OC (centres undefined) | inconclusive [inhibitor, partial curve] | –
44 | CCc1cc(S(=O)(=O)O)c2cc(C(C)C)cccc1-2 | inconclusive [inhibitor, single point] | –
45 | CN1C(=O)C(CC(=O)NCc2nnnn2-c2ccccc2)N(C)C1=O (centres undefined) | inactive | –
46 | COCCN1C(=O)CCc2cc(NC(=O)c3ccccc3C)ccc21 | inactive | –

Row | Compound | Potency | activity change, negative = inhibition
47 | C=C1CCC2C(C)(C)CC(O)CC2(C)C1CCC(C)CCOC(=O)CCC(=O)O (centres undefined) | inconclusive [inhibitor, single point] | –
48 | CCC1(CO)CCCN(S(=O)(=O)c2ccc3c(c2)OCCO3)C1 (centres undefined) | inconclusive [inhibitor, single point] | –
49 | CN1C[C@@H](NC(=O)Nc2cccc(C(F)(F)F)c2)C[C@H]1c1nc(-c2cnccn2)no1 | inactive | –
50 | COc1cc(F)ccc1-c1nc(N2CCOCC2)cc2c1CN(c1ccccc1)C2=O | inactive | –
51 | COc1ccc(-c2[nH]nc3ncc(-c4ccccc4O)nc23)c(C)c1 | inactive | –
52 | Cc1nn2c(c1-c1ccccc1OCc1ccccc1)N(CC1CC1)CCC2 | inactive | –
53 | CN1Cc2ccc(Nc3ccccc3)nc2C(C)(C(=O)NCc2cccs2)C1 (centres undefined) | inconclusive [inhibitor, partial curve, poor fit] | –
54 | Cc1[nH]nc2c1C(c1ccccc1)C(C#N)=C(N)O2 (centres undefined) | inconclusive [inhibitor, partial curve, poor fit] | –
55 | Cc1cc(C2CCCN2C(=O)c2cc(C3CC3)on2)on1 (centres undefined) | inconclusive [inhibitor, single point] | –
56 | CCN1CCN(C(=O)c2ccc3oc(-c4cccnc4)nc3c2)CC1 | inactive | –
57 | CC(C)(C)CC(=O)N1CCN(c2nc(-c3ccccc3)nc3c2CCC3)CC1 | inactive | –
58 | N#Cc1cccc(-c2c(C(=O)NCc3cccc(Cl)c3)nc3sccn23)c1 | inconclusive [inhibitor, single point] | –
59 | Cc1ccc(CC(=O)N2CCC(n3cc(-c4nc(C)no4)nn3)CC2)cc1 | inactive | –
60 | CS(=O)(=O)N1CCc2ccc(C(=O)Nc3ccc(F)cc3)cc21 | inconclusive [inhibitor, single point] | –
61 | c1ccc(CN2C[C@H]3CCN(C4CCOCC4)C[C@H]32)cc1 | inactive | –
62 | CCn1ccc(C(=O)NCCc2ncc(C)n2C2CC2)n1 | inactive | –
63 | CC(C)NC(=O)N1CCC(C(=O)N2CCCC(c3nc4ncccc4[nH]3)C2)CC1 (centres undefined) | inactive | –
64 | COC1CN(c2cccc(F)c2)C12CCN(C(=O)CC1CCCC1)CC2 (centres undefined) | inactive | –
65 | COc1ccc(Cl)cc1C(=O)N1CCCN(c2cc(-c3ccc(C)c(C)c3)[nH]n2)CC1 | inconclusive [inhibitor, partial curve, poor fit] | –
66 | O=C(CN1CCOC1=O)N1CCC(Cc2nncn2-c2ccccc2)CC1 | inconclusive [inhibitor, single point] | –
67 | CC1(C(=O)Nc2ccccc2)CN(Cc2ccccc2)Cc2ccc(N3CCOCC3)nc21 (centres undefined) | inconclusive [inhibitor, single point] | –
68 | Cc1ccc(OCCC2CCN(C(=O)CCc3ccccc3)C2)cc1 (centres undefined) | inconclusive [inhibitor, full curve, poor fit] | –
69 | COCCNc1nc2cc(C(=O)N[C@@H]3CC[C@@H](N)C3)ccc2n1C | inconclusive [inhibitor, partial curve, poor fit] | –
